# Where “and” joins values, the source holds several entries; their conditions need not be identical. Equal values may be shown once. Inconclusive results, whose numbers are uncertain, are shown with a selection of clear calls. Where the call is inconclusive, the potency comes from a doubtful curve fit. The source holds several records for some structures; these can differ, active in one and inactive in another. Calls of active or inactive are those of the source. Unless noted, calls follow the shape of the dose curve; as a rule, active = well fitted cell-killing curve with a large enough effect in the repeat runs; inconclusive = weak or mixed curves; inactive = no such curve, though single readings can be large or run the other way.
# Tested on: not listed separately
# Test: qHTS assay for identifying genotoxic compounds that show differential cytotoxicity against isogenic chicken DT40 cell lines with known DNA damage response pathways - Rad54/Ku70 mutant cell line (AID 743015); also: nearly all actives have a fitted effect of over 60% in size; as to activity change, negative = cytotoxicity: % is scaled to controls: 0 for no effect and ±100 for the full control effect
# Conditions: DT40 Rad54/Ku70 mutant viability, CellTiter-Glo, 40 h; activity change, negative = cytotoxicity: at 66.8 µM (top of the series) unless noted
# Potency is read from the fitted curve at half-maximal effect; tags tell the direction and shape of the fitted curve.
row,SMILES,Potency
1,c1ccc(Sc2ccccc2)cc1,"inconclusive: 68.6 µM [cytotoxic, single point]"
2,O=C(CC(C(=O)OC1CCCCC1)S(=O)(=O)O)OC1CCCCC1 (stereo not given),inactive and active: 12 µM
3,O=c1n(CCO)c(=O)n(CCO)c(=O)n1CCO,"inconclusive: 68.6 µM [cytotoxic, single point]"
4,CCCCCCCCCC,"inconclusive: 68.6 µM [cytotoxic, single point]"
5,Cc1oncc1C(=O)Nc1ccc(C(F)(F)F)cc1,active: 2.27 µM and active: 4.86 µM
6,COC(=O)NCCC[Si](OC)(OC)OC,"inconclusive: 68.6 µM [cytotoxic, single point]"
7,CCOC(=O)[C@H](CCc1ccccc1)N[C@@H](C)C(=O)N1Cc2ccccc2C[C@H]1C(=O)O,"inconclusive: 69.1 µM [cytotoxic, single point]"
8,CCCCCN=C(N)N/N=C/c1c[nH]c2ccc(OC)cc12,"inconclusive: 33.5 µM [cytotoxic, partial curve, poor fit]"
9,S=C(NC1CCCCC1)NC1CCCCC1,active: 61.1 µM
10,c1ccc2n[nH]nc2c1,"inactive and inconclusive: 68.6 µM [cytotoxic, single point]"

# Tested on: not listed separately
# Test: qHTS assay to identify small molecule antagonists of the androgen receptor (AR) signaling pathway - cell viability counter screen (AID 743033; also: nearly all actives have a fitted effect of over 45% in size)
# Conditions: AR-bla HEK293 viability, CellTiter-Glo luminescence, 16 h; series mostly up to 58.5 µM; activity change, negative = cytotoxicity: at the top concentration
row,SMILES,Potency
1,c1ccc(Sc2ccccc2)cc1,"inconclusive: 61.6 µM [cytotoxic, single point]"
2,O=c1n(CCO)c(=O)n(CCO)c(=O)n1CCO,"inconclusive: 61.7 µM [cytotoxic, single point]"
3,O=C1OC(O)C(C(Cl)Cl)=C1Cl (stereo not given),active: 22.5 µM
4,Cc1oncc1C(=O)Nc1ccc(C(F)(F)F)cc1,"inconclusive: 811 nM [cytotoxic, partial curve, poor fit] and active: 54.9 µM"
5,CCCCCCCCn1sc(Cl)c(Cl)c1=O,active: 6.16 µM
6,S=C(NC1CCCCC1)NC1CCCCC1,active: 19.1 µM
7,c1ccc2n[nH]nc2c1,"inconclusive: 61.7 µM [cytotoxic, single point]"

# Target: Androgen receptor (Homo sapiens) (UniProt P10275)
# Test: qHTS assay to identify small molecule antagonists of the androgen receptor (AR) signaling pathway (AID 743035; active = well fitted inhibition curve with a large enough effect in the signal ratio in the repeat runs, not every such curve was filed as active; inconclusive = weak or mixed curves, or effect the other way; inactive = no such curve, though single readings can be large or run the other way; the % refers to the signal ratio; as to activity change, negative = inhibition: % is scaled to controls: 0 for no effect and ±100 for the full control effect)
# Conditions: HEK293 AR-UAS-bla, R1881-stimulated, beta-lactamase FRET, 16 h; activity change, negative = inhibition: at 58.5 µM (top of the series) unless noted
# Summary of the method: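 In this cell-based reporter screen, compounds were tested in concentration series against R1881-activated HEK293 cells expressing beta-lactamase under UAS control; after 16 h at 37C, FRET substrate was added and fluorescence read 2 h later.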
# Sequence of UniProt P10275 (P10275 whole entry, looked up): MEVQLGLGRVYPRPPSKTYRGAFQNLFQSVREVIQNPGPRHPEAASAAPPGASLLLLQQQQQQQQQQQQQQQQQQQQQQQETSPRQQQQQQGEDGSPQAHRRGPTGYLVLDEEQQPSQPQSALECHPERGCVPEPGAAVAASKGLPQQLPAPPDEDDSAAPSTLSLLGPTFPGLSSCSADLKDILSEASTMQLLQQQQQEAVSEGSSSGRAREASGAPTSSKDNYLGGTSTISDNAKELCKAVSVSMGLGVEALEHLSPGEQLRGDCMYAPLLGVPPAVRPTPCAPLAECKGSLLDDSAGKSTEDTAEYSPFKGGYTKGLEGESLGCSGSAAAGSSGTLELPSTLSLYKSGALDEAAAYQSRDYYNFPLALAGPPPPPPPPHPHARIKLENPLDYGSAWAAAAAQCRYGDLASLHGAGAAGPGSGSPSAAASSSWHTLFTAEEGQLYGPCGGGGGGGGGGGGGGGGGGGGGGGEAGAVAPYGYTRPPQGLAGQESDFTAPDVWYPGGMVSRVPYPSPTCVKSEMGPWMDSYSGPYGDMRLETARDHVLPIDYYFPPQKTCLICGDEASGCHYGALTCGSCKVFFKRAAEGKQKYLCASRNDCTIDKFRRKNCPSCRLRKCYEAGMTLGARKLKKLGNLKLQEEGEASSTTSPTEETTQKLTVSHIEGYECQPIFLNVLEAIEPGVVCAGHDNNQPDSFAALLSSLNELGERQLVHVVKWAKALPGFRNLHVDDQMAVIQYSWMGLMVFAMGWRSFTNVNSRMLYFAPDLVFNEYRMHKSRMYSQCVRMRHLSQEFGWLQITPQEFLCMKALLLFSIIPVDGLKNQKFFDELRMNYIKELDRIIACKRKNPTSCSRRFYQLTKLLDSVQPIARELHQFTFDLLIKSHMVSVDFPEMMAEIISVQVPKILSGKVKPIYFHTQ
SMILES,Potency,"activity change, negative = inhibition"
C[C@H]1O[C@@H](O[C@H]2CC[C@@]3(C)[C@H](CC[C@@H]4[C@@H]3C[C@@H](O)[C@]3(C)[C@@H](C5=CC(=O)OC5)CC[C@]43O)C2)C[C@H](O)[C@@H]1O[C@H]1C[C@H](O)[C@H](O[C@H]2C[C@H](O)[C@H](O[C@@H]3O[C@H](CO)[C@@H](O)[C@H](O)[C@H]3O)[C@@H](C)O2)[C@@H](C)O1,active: 1.2 µM,–
c1ccc(Sc2ccccc2)cc1,–,inactive: 7.54%
OCCN1CCN(CC/C=C2/c3ccccc3Sc3ccc(C(F)(F)F)cc32)CC1,"inconclusive: 26.8 µM [falling, single point]",–
